# Assay results: the supplement of paper PMC8728848
# The list shows a part of the results.
# B1: PLU (Photorhabdus luminiscence) (protein)
# chain: HHHHHHENLYFQSSIVFASIDPRSNPLQTSSQNYVDIPGLKLDVSKYSNSPCLTALITLNIPTPYASGNNFPGGNFAIVTDQGEQLAYGGFTYSSKIPENSGRMPFTLVARYSLASNVSTIKAQWSNIRGSTVHIDSYASISAVIQCNQLV
# What was measured:
# Test in all cases: glycan array binding signal (z-score within array); higher = stronger binding
# Settings in all cases: glycan notation: IUPAC condensed, linker removed
# [1] = target: Neu5Ac(a2-3)Gal(b1-3)]Neu5Ac(a2-3)Gal(b1-4)]GlcNAc
# Summary of the method: (§1)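 Glycan array data came from 3228 arrays in the Consortium for Functional Glycomics database, and only arrays with an available protein sequence were kept. Glycan names were put into IUPAC-condensed notation, and columns mapping to the same glycan were averaged. The binding signal is a within-array Z-score, averaged across arrays of one protein sequence run at different concentrations or buffers and across linkers. A negative Z-score can be read as non-binding.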
# Neu5Ac(a2-3)Gal(b1-4)Glc = target: Neu5Ac(a2-3)Gal(b1-4)Glc
# Summary of the method: as §1
# [2] = target: Neu5Ac(a2-3)Gal(b1-4)GlcNAc
# Summary of the method: as §1
# [3] = target: Neu5Ac(a2-3)Gal(b1-4)GlcNAc(b1-2)Man
# Summary of the method: as §1
# [4] = target: Neu5Ac(a2-3)Gal(b1-4)GlcNAc(b1-2)Man(a1-3)[GlcNAc(b1-4)][Neu5Ac(a2-3)Gal(b1-4)GlcNAc(b1-2)Man(a1-6)]Man(b1-4)GlcNAc(b1-4)GlcNAc
# Summary of the method: as §1
# [5] = target: Neu5Ac(a2-3)Gal(b1-4)GlcNAc(b1-2)Man(a1-3)[Neu5Ac(a2-3)Gal(b1-4)GlcNAc(b1-2)Man(a1-6)]Man(b1-4)GlcNAc(b1-4)GlcNAc
# Summary of the method: as §1
# [6] = target: Neu5Ac(a2-3)Gal(b1-4)GlcNAc(b1-2)Man(a1-3)[Neu5Ac(a2-3)Gal(b1-4)GlcNAc(b1-2)Man(a1-6)]Man(b1-4)GlcNAc(b1-4)[Fuc(a1-6)]GlcNAc
# Summary of the method: as §1
# [7] = target: Neu5Ac(a2-3)Gal(b1-4)GlcNAc(b1-2)Man(a1-3)[Neu5Ac(a2-6)Gal(b1-4)GlcNAc(b1-2)Man(a1-6)]Man(b1-4)GlcNAc(b1-4)GlcNAc
# Summary of the method: as §1
# [8] = target: Neu5Ac(a2-3)Gal(b1-4)GlcNAc(b1-2)[Neu5Ac(a2-3)Gal(b1-4)GlcNAc(b1-4)]Man(a1-3)[GlcNAc(b1-4)][Neu5Ac(a2-3)Gal(b1-4)GlcNAc(b1-2)[Neu5Ac(a2-3)Gal(b1-4)GlcNAc(b1-6)]Man(a1-6)]Man(b1-4)GlcNAc(b1-4)GlcNAc
# Summary of the method: as §1
# [9] = target: Neu5Ac(a2-3)Gal(b1-4)GlcNAc(b1-2)[Neu5Ac(a2-3)Gal(b1-4)GlcNAc(b1-4)]Man(a1-3)[GlcNAc(b1-4)][Neu5Ac(a2-3)Gal(b1-4)GlcNAc(b1-4)Man(a1-6)]Man(b1-4)GlcNAc(b1-4)GlcNAc
# Summary of the method: as §1
# [10] = target: Neu5Ac(a2-3)Gal(b1-4)GlcNAc(b1-2)[Neu5Ac(a2-3)Gal(b1-4)GlcNAc(b1-6)]Man(a1-6)[Neu5Ac(a2-3)Gal(b1-4)GlcNAc(b1-2)Man(a1-3)][GlcNAc(b1-4)]Man(b1-4)GlcNAc(b1-4)GlcNAc
# Summary of the method: as §1
# [11] = target: Neu5Ac(a2-3)Gal(b1-4)GlcNAc(b1-3)Gal
# Summary of the method: as §1
# [12] = target: Neu5Ac(a2-3)Gal(b1-4)GlcNAc(b1-3)Gal(b1-3)GlcNAc
# Summary of the method: as §1
# [13] = target: Neu5Ac(a2-3)Gal(b1-4)GlcNAc(b1-3)Gal(b1-4)GlcNAc
# Summary of the method: as §1
# [14] = target: Neu5Ac(a2-3)Gal(b1-4)GlcNAc(b1-3)Gal(b1-4)GlcNAc(b1-2)Man(a1-3)[Neu5Ac(a2-3)Gal(b1-4)GlcNAc(b1-3)Gal(b1-4)GlcNAc(b1-2)Man(a1-6)]Man(b1-4)GlcNAc(b1-4)GlcNAc
# Summary of the method: as §1
# [15] = target: Neu5Ac(a2-3)Gal(b1-4)GlcNAc(b1-3)Gal(b1-4)GlcNAc(b1-3)Gal(b1-4)GlcNAc
# Summary of the method: as §1
# [16] = target: Neu5Ac(a2-3)Gal(b1-4)GlcNAc(b1-3)Gal(b1-4)GlcNAc(b1-3)Gal(b1-4)GlcNAc(b1-2)Man(a1-3)[Neu5Ac(a2-3)Gal(b1-4)GlcNAc(b1-3)Gal(b1-4)GlcNAc(b1-3)Gal(b1-4)GlcNAc(b1-2)Man(a1-6)]GalNAc
# Summary of the method: as §1
# [17] = target: Neu5Ac(a2-3)Gal(b1-4)GlcNAc(b1-3)Gal(b1-4)GlcNAc(b1-3)GalNAc
# Summary of the method: as §1
# [18] = target: Neu5Ac(a2-3)Gal(b1-4)GlcNAc(b1-3)Gal(b1-4)GlcNAc(b1-3)[Neu5Ac(a2-3)Gal(b1-4)GlcNAc(b1-3)Gal(b1-4)GlcNAc(b1-6)]GalNAc
# Summary of the method: as §1
# [19] = target: Neu5Ac(a2-3)Gal(b1-4)GlcNAc(b1-3)Gal(b1-4)GlcNAc(b1-6)[Gal(b1-3)]GalNAc
# Summary of the method: as §1
# [20] = target: Neu5Ac(a2-3)Gal(b1-4)GlcNAc(b1-3)Gal(b1-4)[Fuc(a1-3)]GlcNAc
# Summary of the method: as §1
# [21] = target: Neu5Ac(a2-3)Gal(b1-4)GlcNAc(b1-3)GalNAc
# Summary of the method: as §1
# [22] = target: Neu5Ac(a2-3)Gal(b1-4)GlcNAc(b1-3)[Neu5Ac(a2-3)Gal(b1-4)GlcNAc(b1-6)]GalNAc
# Summary of the method: as §1
binder,measurement,setting,value
B1,glycan array binding signal (z-score),[1],-0.2
same,glycan array binding signal (z-score),Neu5Ac(a2-3)Gal(b1-4)Glc,-0.23
same,glycan array binding signal (z-score),[2],-0.278
same,glycan array binding signal (z-score),[3],-0.192
same,glycan array binding signal (z-score),[4],-0.251
same,glycan array binding signal (z-score),[5],-0.219
same,glycan array binding signal (z-score),[6],-0.246
same,glycan array binding signal (z-score),[7],-0.216
same,glycan array binding signal (z-score),[8],-0.201
same,glycan array binding signal (z-score),[9],-0.348
same,glycan array binding signal (z-score),[10],-0.271
same,glycan array binding signal (z-score),[11],-0.244
same,glycan array binding signal (z-score),[12],-0.324
same,glycan array binding signal (z-score),[13],-0.256
same,glycan array binding signal (z-score),[14],-0.175
same,glycan array binding signal (z-score),[15],-0.272
same,glycan array binding signal (z-score),[16],-0.168
same,glycan array binding signal (z-score),[17],-0.289
same,glycan array binding signal (z-score),[18],-0.263
same,glycan array binding signal (z-score),[19],-0.228
same,glycan array binding signal (z-score),[20],-0.267
same,glycan array binding signal (z-score),[21],-0.224
same,glycan array binding signal (z-score),[22],-0.363
